Results on 38 compounds are retold here after the supplement of paper PMC9446081.

Among all 39,000 compounds or so, about 220 (0.56%) showed activity. Some of the results follow.
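Further: static incubation at 37 °C against the wild-type strain, values averaged over two biological replicates.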

This assay deals with Escherichia coli K-12 BW25113. Put plainly: relative growth (OD600 normalised to plate interquartile mean) (fraction); higher = less growth inhibition, active = 0.2 or less. To be noted: 50 µM; LB; incubation time: overnight (16-24 h).
Take `C[C@@H]1CN([C@H](C)CO)S(=O)(=O)c2ccc(-c3ccc(C(=O)N(C)C)cc3)cc2O[C@@H]1CN(C)C(=O)C1CCC1`: the relative growth was inactive: 1.01.

With `COc1ccc(S(=O)(=O)N2C[C@H](O)COC[C@@H]3O[C@@H](CC(=O)NCCCN(C)C)CC[C@H]32)cc1`, the relative growth is inactive: 0.995.

Take `CC(=O)N1CCS(=O)(=O)[C@@H]2CCN(S(=O)(=O)c3ccccc3C)CC[C@@H]21`: the relative growth is inactive: 0.987.

`COC(=O)[C@@H]1C[C@@H](C#N)N[C@@H]1c1ccccn1`: the relative growth is inactive: 1.02.

For `C[C@H](CO)N1C[C@H](C)[C@H](CN(C)Cc2ccc(C(=O)O)cc2)OCCCC[C@H](C)Oc2ccc(NC(=O)Nc3ccc4c(c3)OCO4)cc2C1=O`, the relative growth was inactive: 1.02.

Take `C[C@@H]1CCCCO[C@@H](CN(C)S(=O)(=O)c2ccc(Cl)cc2)[C@H](C)CN([C@H](C)CO)C(=O)c2cc(NC(=O)NC3CCCCC3)ccc2O1`: the relative growth was inactive: 1.01.

For the compound `COc1ccc(CN(C)C[C@H]2Oc3ccc(NS(=O)(=O)c4cn(C)cn4)cc3CC(=O)N([C@H](C)CO)C[C@H]2C)cc1`, the relative growth is inactive: 0.983.

For `C[C@H](CO)N1C[C@H](C)[C@H](CN(C)C(=O)NC2CCCCC2)Oc2ccc(NS(=O)(=O)c3cn(C)cn3)cc2C1=O`, the relative growth was inactive: 0.975.

For `C[C@H](CO)N1C[C@H](C)[C@@H](CN(C)S(=O)(=O)c2ccccc2)Oc2ccc(NC(=O)C3CC3)cc2C1=O`, the relative growth was inactive: 1.

Consider `C[C@@H]1CCCCO[C@@H](CN(C)Cc2ccc(C(F)(F)F)cc2)[C@H](C)CN([C@@H](C)CO)C(=O)c2cc(NC(=O)Nc3ccccc3)ccc2O1`, for which the relative growth was inactive: 0.971.

Consider `Cc1cc(C(=O)O)n(C)n1`, for which the relative growth was inactive: 0.984.

`Cc1ccc(S(=O)(=O)N(C)C[C@@H]2OCCCC[C@H](C)Oc3ccc(NC(=O)Nc4c(C)noc4C)cc3C(=O)N([C@@H](C)CO)C[C@@H]2C)cc1`: the relative growth was inactive: 0.988.

Consider `C[C@@H]1CN([C@@H](C)CO)C(=O)c2cc(NS(=O)(=O)c3ccc(F)cc3)ccc2O[C@@H](C)CCCCO[C@@H]1CN(C)C(=O)Nc1ccccc1`, for which the relative growth was inactive: 1.03.

On to `COc1c2ccoc2cc2oc(=O)ccc12`, for which the relative growth is inactive: 1.11.

For `CN(C)CC(=O)N1CC(=O)N2[C@H](CO)[C@@H](c3ccc(C#Cc4cccnc4)cc3)[C@@H]2C1`, the relative growth is inactive: 1.

As to `C[C@H](CO)N1C[C@H](C)[C@H](CN(C)S(=O)(=O)c2ccccc2)OCCCC[C@H](C)Oc2ccc(NC(=O)Nc3ccc(C(F)(F)F)cc3)cc2C1=O`, the relative growth is inactive: 1.

Regarding `CC(C)NC(=O)N(C)C[C@@H]1Oc2cc(C#Cc3cccc(F)c3)ccc2S(=O)(=O)N([C@@H](C)CO)C[C@@H]1C`, the relative growth was inactive: 0.992.

Take `C[C@@H]1CN([C@@H](C)CO)C(=O)c2cc(NC(=O)Nc3cccc4ccccc34)ccc2O[C@@H](C)CCCCO[C@@H]1CN(C)S(=O)(=O)c1ccc(Cl)cc1`: the relative growth is inactive: 1.

Consider `Cc1cc(=O)n(CNC(=O)c2ccco2)cn1`, for which the relative growth is inactive: 1.01.

`CN(C)CC(=O)N1[C@@H]2Cn3c(cccc3=O)[C@H]1[C@@H](C(=O)NCc1ccccc1)[C@@H]2CO`: the relative growth was inactive: 1.

Take `C[C@@H]1CN([C@@H](C)CO)C(=O)c2cc(NC(=O)Nc3cccc4ccccc34)ccc2O[C@H]1CN(C)C(=O)Nc1cccc2ccccc12`: the relative growth was inactive: 1.03.

`Cc1noc(C)c1S(=O)(=O)Nc1ccc2c(c1)C(=O)N([C@H](C)CO)C[C@@H](C)[C@H](CN(C)Cc1ccc(C(F)(F)F)cc1)OCCCC[C@H](C)O2`: the relative growth was inactive: 1.02.

Take `C[C@@H]1CCCCO[C@H](CN(C)S(=O)(=O)c2cccs2)[C@@H](C)CN([C@H](C)CO)C(=O)c2cc(NC(=O)Nc3ccc4c(c3)OCO4)ccc2O1`: the relative growth is inactive: 1.02.

Regarding `CC(C)NC(=O)Nc1ccc2c(c1)CC(=O)N([C@H](C)CO)C[C@@H](C)[C@H](CN(C)S(=O)(=O)c1ccc(Cl)cc1)O2`, the relative growth is inactive: 1.01.

Turning to `C[C@@H]1CCCCO[C@@H](CN(C)C(=O)c2ccccc2)[C@H](C)CN([C@@H](C)CO)C(=O)c2cc(NC(=O)Nc3cccc4ccccc34)ccc2O1`, the relative growth is inactive: 1.01.

In the case of `O=C(/C=C/c1ccc2c(c1)O[C@@H](C(=O)O)[C@@H](c1ccc(O)c(O)c1)O2)O[C@H](Cc1ccc(O)c(O)c1)C(=O)O`, the relative growth is inactive: 0.978.

For `C[C@@H]1CCCCO[C@@H](CN(C)Cc2ccc(Cl)c(Cl)c2)[C@@H](C)CN([C@H](C)CO)C(=O)c2cc(NC(=O)C3CCCCC3)ccc2O1`, the relative growth was inactive: 0.987.

As for `C[C@@H]1CCCCO[C@@H](CN(C)S(=O)(=O)c2ccc(F)cc2)[C@@H](C)CN([C@H](C)CO)C(=O)c2cc(NC(=O)NC3CCCCC3)ccc2O1`, the relative growth was inactive: 1.

Take `Cn1cc(CO)cn1`: the relative growth was inactive: 1.01.

As for `C[C@H]1CCCCO[C@@H](CN(C)S(=O)(=O)c2ccc(Cl)cc2)[C@@H](C)CN([C@@H](C)CO)C(=O)c2cc(NS(=O)(=O)c3ccc(F)cc3)ccc2O1`, the relative growth is inactive: 1.02.

For `CC(C)CC#Cc1ccc2c(c1)O[C@@H](CN(C)C(=O)c1cccnc1)[C@@H](C)CN([C@H](C)CO)S2(=O)=O`, the relative growth was inactive: 0.971.

For the compound `COc1ccc(NC(=O)N(C)C[C@@H]2OCCCC[C@H](C)Oc3ccc(NC(=O)CCC(F)(F)F)cc3C(=O)N([C@H](C)CO)C[C@@H]2C)cc1`, the relative growth is inactive: 1.

Regarding `Cc1noc(C)c1S(=O)(=O)N(C)C[C@H]1Oc2ccc(NC(=O)Nc3ccc4c(c3)OCO4)cc2CC(=O)N([C@H](C)CO)C[C@@H]1C`, the relative growth was inactive: 1.01.

Take `Fc1cc2ccncc2cc1Cl`: the relative growth was inactive: 0.966.

As for `CCC(C)C(N)C(=O)O` (stereo not drawn), the relative growth is inactive: 0.923.

For the compound `C[C@H]1CN([C@@H](C)CO)C(=O)c2cc(NC(=O)Cc3cn(C)c4ccccc34)ccc2O[C@H]1CN(C)CC1CCCCC1`, the relative growth is inactive: 0.988.

As to `CN(C)CCCNC(=O)C[C@@H]1CC[C@@H](NS(=O)(=O)c2ccccc2)[C@H](CO)O1`, the relative growth was inactive: 0.999.

Regarding `C[C@@H]1CCCCO[C@H](CN(C)Cc2ccc(Cl)c(Cl)c2)[C@@H](C)CN([C@@H](C)CO)C(=O)c2cc(NC(=O)CCC(F)(F)F)ccc2O1`, the relative growth was inactive: 0.914.
